From paper PMC4336329 (PLoS ONE, 2015)
The campaign covered roughly 310,000 compounds. About 2,200 (0.71%) showed an effect of 50% or more. The effect is printed as a negative number. This is one part of the list.

target: human ether-à-go-go-related gene (hERG) potassium channel (human, UniProt Q12809); assay: primary screen, population patch clamp on CHO cells stably expressing hERG
Sequence (Q12809 whole entry, looked up): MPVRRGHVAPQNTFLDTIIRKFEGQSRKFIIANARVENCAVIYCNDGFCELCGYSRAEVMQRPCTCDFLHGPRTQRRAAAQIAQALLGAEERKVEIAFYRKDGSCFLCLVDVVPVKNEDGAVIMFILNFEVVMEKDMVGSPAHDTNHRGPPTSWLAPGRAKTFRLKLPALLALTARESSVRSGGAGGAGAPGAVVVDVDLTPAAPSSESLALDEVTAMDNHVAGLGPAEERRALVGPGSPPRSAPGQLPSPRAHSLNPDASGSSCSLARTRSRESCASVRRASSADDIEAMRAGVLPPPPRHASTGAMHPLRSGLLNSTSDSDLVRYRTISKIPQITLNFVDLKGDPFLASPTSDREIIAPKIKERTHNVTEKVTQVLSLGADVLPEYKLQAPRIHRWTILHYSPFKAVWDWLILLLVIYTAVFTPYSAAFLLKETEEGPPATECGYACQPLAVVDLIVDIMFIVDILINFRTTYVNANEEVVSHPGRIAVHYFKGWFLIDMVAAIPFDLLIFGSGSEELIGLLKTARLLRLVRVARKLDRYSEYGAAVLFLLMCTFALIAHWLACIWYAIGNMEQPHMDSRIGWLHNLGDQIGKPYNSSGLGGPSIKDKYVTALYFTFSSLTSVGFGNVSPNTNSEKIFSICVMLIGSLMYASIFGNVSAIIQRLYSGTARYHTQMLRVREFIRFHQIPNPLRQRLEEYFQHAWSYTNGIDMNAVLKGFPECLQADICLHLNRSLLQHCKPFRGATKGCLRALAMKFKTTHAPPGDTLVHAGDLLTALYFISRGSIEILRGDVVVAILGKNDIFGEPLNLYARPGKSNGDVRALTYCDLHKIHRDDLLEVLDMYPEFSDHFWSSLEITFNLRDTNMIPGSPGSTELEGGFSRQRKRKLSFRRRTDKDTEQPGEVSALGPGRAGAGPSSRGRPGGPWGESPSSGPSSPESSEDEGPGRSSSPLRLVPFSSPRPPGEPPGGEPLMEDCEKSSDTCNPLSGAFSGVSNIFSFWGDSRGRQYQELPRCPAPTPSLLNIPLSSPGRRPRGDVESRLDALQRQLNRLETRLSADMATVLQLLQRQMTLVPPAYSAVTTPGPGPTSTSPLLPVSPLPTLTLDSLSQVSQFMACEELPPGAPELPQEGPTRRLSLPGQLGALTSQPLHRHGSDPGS

Row | SMILES | hERG current change (%, negative = inhibition) at 1uM [%]
1 | O=C(Nc1cc(S(=O)(=O)N2CCOCC2)ccc1N1CCCC1)C1COc2ccccc2O1 (centres unmarked) | 4.92
2 | Cc1cc(C)n(CCC(=O)N2CCCC(N3CCN(c4cccc(Cl)c4)CC3)C2)n1 (centres unmarked) | 4.93
3 | CN1/C(=C\C(=O)Nc2ccc(F)cc2)C(C)(C)c2ccccc21 | -0.0779
4 | O=C(CCc1nnc(Cc2c[nH]c3ccccc23)o1)NCC1CC12CCCCC2 (centres unmarked) | 6.98
5 | O=c1[nH]nc(CNc2cccc(C(F)(F)F)c2)c2ccccc12 | -1.17
6 | COc1cccc(NC(=O)Cn2c(CCC(=O)O)ccc2-c2ccccc2)c1 | 13.2
7 | Cc1cccn2c(=O)nc(SCC(=O)c3ccccc3)nc12 | 4.8
8 | COc1ccc(N2CCN(c3oc(COc4ccc(Cl)cc4Cl)nc3C#N)CC2)cc1 | -13.1
9 | O=C(Nc1ccccc1C(=O)N/N=C/c1ccco1)c1ccccc1 | -0.508
10 | N#Cc1c(-c2ccccc2Cl)noc1/C=C/Nc1ccc(C(=O)O)cc1 | 11.7
11 | CCOC(=O)C1=CC[C@H]2c3c(c4ccccc4n3C)C(=O)C1N2C(=O)OC(C)(C)C | 8.93
12 | CCC(=O)N1CCc2cc(S(=O)(=O)CCC(=O)Nc3ccc(F)c(F)c3)ccc21 | 8.69
13 | Cc1cc(C(=O)CN2C(=O)NC(Cc3c[nH]c4ccccc34)C2=O)c(C)n1C (centres unmarked) | 14
14 | O=C(Oc1cccnc1)c1cccc(Cl)c1 | 14.7
15 | Cn1ncc2c(=O)n(/N=C/c3ccccc3)cnc21 | 15.6
16 | O=C(Nc1ccc2ccccc2c1)c1ccccc1F | 15.9
17 | COc1cccc(/C=C/C(=O)OCC(=O)c2c[nH]c3ccccc23)c1 | 8.65
18 | COc1ccc(CCNC(=O)c2cc3c(=O)n4cccc(C)c4nc3n(Cc3ccco3)c2=N)cc1OC | -21.8
19 | Cc1c[n+](CC(=O)c2ccccc2)cs1.[Br-] | 16.1
20 | COc1ccccc1C(=O)NCCC(=O)NCC(c1ccccc1)N(C)C (centres unmarked) | 2.94
21 | CCc1cccc(NC(=O)CCCSc2nc3ccccc3[nH]2)c1 | 4.54
22 | CCn1cc(CNCc2cn(-c3ccccc3C)nc2-c2ccc(OC)c(F)c2)cn1 | -3.6

Row | SMILES | hERG current change (%, negative = inhibition) at 1uM [%]
23 | O=C(O)C1CCCN1C(=O)Nc1ccc(Cl)cc1 (centres unmarked) | 14.1
24 | CC(N=C1NS(=O)(=O)c2ccccc21)C(=O)Nc1ccc(F)cc1Cl (centres unmarked) | 6.09
25 | O=c1[nH]c2cc3ccccc3cc2nc1C(F)(F)F | 16.2
26 | CN(C)CCCNCCCNC(=O)c1ccco1.O=C(O)/C=C/C(=O)O | 8.9
27 | CCn1c(CNC(=O)c2ccco2)nnc1SCC(=O)Nc1ccc(Br)cc1F | -24.6
28 | CC(NCc1ccccc1)C1COc2ccccc2O1 (centres unmarked) | 8.41
29 | Cc1c(CC(C)C)nc(N)c(C#N)c1-c1ccccc1 | 11
30 | O=C(Cn1nnc(-c2ccccc2)n1)OCc1csc(-c2ccccc2)n1 | 2.78
31 | COCCCn1c(N)c(C(=O)NCCC(C)C)c2nc3ccccc3nc21 | -24.6
32 | O=C(NCCN1CCOCC1)c1cccc(NS(=O)(=O)c2ccc(Br)cc2)c1 | -1.47
33 | CC(C)NC(=O)c1ccc2c(c1)N(Cc1ccccc1)C(=O)C(C)(C)O2 | 17.7
34 | Cc1ccc(NC(=O)CSc2ccc3c(c2)OCCO3)c(O)c1 | 3.26
35 | CCC1SC2=NC(C)=C(C(=O)OCCOC)C(c3ccc(C(=O)OC)cc3)N2C1=O (centres unmarked) | 0.478
36 | COC(=O)c1cn(NC(=O)c2cc([N+](=O)[O-])ccc2F)c(=O)c2ccccc12 | 6.49
37 | C=C1c2c(Cl)ccc(O)c2C(O)=C2C(=O)[C@]3(O)C(O)=C(C(N)=O)C(=O)[C@@H](N(C)C)[C@@H]3[C@@H](O)C12.O=C(O)c1cc(S(=O)(=O)O)ccc1O (some centres unmarked) | 8.12
38 | N#Cc1cccc(NC(=O)CSc2nnc(-c3n[nH]c4ccccc34)o2)c1 | 14.8
39 | CC(C)n1c(SCC(=O)N2CCCCC2)nc2c1c(=O)n(C)c(=O)n2C | 8.64
40 | CCC(=O)N1CCc2cc(Br)cc(S(=O)(=O)NC3CCN(Cc4ccccc4)CC3)c21 | 8.26
41 | Cc1c(C(=O)Nc2ccc3nc(N4CCOCC4)sc3c2)oc2ccccc12 | 12.5
42 | COc1ccc(S(=O)(=O)n2nc(OC(=O)c3cccs3)cc2NC(=O)c2cccs2)cc1 | 1.73
43 | CCCC[C@H]1COCCS(=O)(=O)N1Cc1ccc(F)cc1 | 16.1
44 | COc1ccc(S(=O)(=O)N2CCC(C(=O)c3ccc4c(c3)OCCO4)CC2)cc1 | 0.357

Row | SMILES | hERG current change (%, negative = inhibition) at 1uM [%]
45 | COc1ccccc1/C=N/NC(=O)c1cc2c(ccc3ccccc32)o1 | 8.3
46 | CN(C)C(/C=C/Nc1ccc(F)cc1F)=C(C#N)C#N | 9.83
47 | COP(C)(=O)c1c(C)nn(-c2ccccc2)c1C (centres unmarked) | -6.73
48 | O=C(OCC(=O)N1CCN(C(=O)COC(=O)c2ccncc2)CC1)c1ccncc1 | 15.7
49 | Cc1c(O)ccc(-c2[nH]ncc2-c2nc3ccccc3s2)c1O | 12.7
50 | O=[N+]([O-])c1ccc(N2CCN(c3nc(-c4ccc(Cl)cc4)cs3)CC2)cc1 | 8.35
51 | Cn1c(=NC(=O)CS(=O)(=O)c2ccccc2)sc2ccccc21 | 18.8
52 | Cc1cccc(NC(=O)N2CCC(n3nnc4cc(C)ccc43)CC2)c1 | 1.17
53 | C/C(=N\NC(=O)CN(c1ccccc1Br)S(C)(=O)=O)c1ccc2c(c1)OCCO2 | -4.6
54 | COc1ccc(-c2csc(NC(=O)CN3C(=O)C4CCCCC4C3=O)n2)cc1OC (centres unmarked) | -15.5
55 | O=S(=O)(Cc1ccccc1)NCCc1cccc(Cl)c1 | 7.72
56 | O=C(Cn1cnc2cc([N+](=O)[O-])ccc2c1=O)NCc1ccc(Cl)cc1 | -1.65
57 | COC1(OC)N=C(N)C2(C#N)C(c3cccc(Oc4ccccc4)c3)C12C#N (centres unmarked) | 2.52
58 | CCn1ncc(CN2CCC(Oc3cc(C(=O)NC4CC4)ccc3OC)CC2)c1C | 1.05
59 | COc1cc(C(=O)NCc2cccc3ccccc23)cc(Cl)c1OC | 16.6
60 | Cc1onc(-c2ccccc2)c1C(=O)N=C(N)c1ccc(C(F)(F)F)cc1 | 14.6
61 | COc1ccccc1OCCNC(=O)c1cccc(S(=O)(=O)NCc2ccccc2)c1 | -9.47
62 | O=Cc1c(Sc2ccccc2)nc2ccccn2c1=O | 3.98
63 | CCOc1ccccc1NC(=O)C1CCN(S(=O)(=O)c2c(C)noc2C)CC1 | 17.4
64 | CC(=O)N1CCCN(C(=O)c2ccc3nc(Cc4ccccc4F)oc3c2)CC1 | 2.68
65 | COc1ccc(C(=O)N/C(=C\c2cn(C)c3ccccc23)C(=O)NCCCn2ccnc2)cc1 | 13.7
66 | Nc1cc(C(Cl)=C(Cl)Cl)c(S(N)(=O)=O)cc1S(N)(=O)=O | 17.7

Row | SMILES | hERG current change (%, negative = inhibition) at 1uM [%]
67 | CC1CCCC(C)N1CCCNC(=O)c1cc2c(=O)n(C)c3ccccc3c2n1C (centres unmarked) | 12.8
68 | Cc1cc(C)c(OCC(=O)N/N=C/c2ccc3c(c2)OCO3)c(C)c1 | 2.67
69 | Cc1ncsc1C(=O)O | 12.3
70 | CCn1cc(CCC(=O)NC(C)c2ccccc2)c2ccccc21 (centres unmarked) | 8.93
71 | O=S(=O)(NCc1ccccn1)c1cc(OCC(F)(F)F)ccc1OCC(F)(F)F | -40.1
72 | CCN(C(=O)CSc1nncs1)c1c(N)n(Cc2ccccc2)c(=O)[nH]c1=O | 5.54
73 | COc1cc2[nH]c(=O)n(CCCCCC(=O)NCCCN3CCCC3=O)c(=O)c2cc1OC | 1.56
74 | COC(=O)c1ccc(OS(=O)(=O)N(C)C)cc1 | 16.6
75 | Cc1nn(CCCC(=O)NCc2ccc(F)cc2)c(=O)c2nccn12 | 13
76 | CC(C)Nc1nnc(Sc2ccc(Cl)cc2[N+](=O)[O-])s1 | 2.47
77 | Cc1c(Br)c([N+](=O)[O-])nn1CC(=O)Nc1sc2c(c1C(=O)OC(C)C)CCC(C)C2 (centres unmarked) | 12.2
78 | CC(=O)c1c(C)[nH]c(C(=O)OCC(=O)Nc2ccc(Cl)c(S(=O)(=O)N(C)C)c2)c1C | -2.69
79 | O=C(CSc1ncccn1)Nn1cnnc1 | 12.2
80 | CCN1C(=O)C2(C(C#N)=C(N)Oc3cc(C)oc(=O)c32)c2ccccc21 (centres unmarked) | 8.19
81 | CC(C)n1c(-c2ccc(C(C)(C)C)cc2)n[nH]c1=S | 9.76
82 | COc1cccc2sc(=NC(=O)CCS(=O)(=O)c3ccc(C)cc3)n(C)c12 | 6.98
83 | O=C(c1ccco1)N1CCN(C(=O)N2CCCC2)CC1 | 3.55
84 | O=C1C=C(NNC(=O)c2ccccc2Br)CCC1 | 13.3
85 | Cc1ccc2oc(=O)n(Cc3ccc(OC(C)C)cc3)c2c1 | 7.16
86 | Cc1ccc(NN2C(=O)C=CC2=O)cc1 | 1.48
